{"source": "paper PMC6919601", "about": "“Identification of Plasmodium dipeptidyl aminopeptidase allosteric inhibitors by high throughput screening” (PLoS ONE, 2019)", "note": "Out of some 110,000 compounds screened, about 230 (0.21%) showed an effect of 50% or more. Some of the results follow.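 Also: 30 min substrate incubation versus DMSO and 10 µM JCP410 controls.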"}
{"biological_target": "DPAP1 (Plasmodium falciparum, UniProt Q8IIJ9)", "sequence (Q8IIJ9 whole entry, looked up)": "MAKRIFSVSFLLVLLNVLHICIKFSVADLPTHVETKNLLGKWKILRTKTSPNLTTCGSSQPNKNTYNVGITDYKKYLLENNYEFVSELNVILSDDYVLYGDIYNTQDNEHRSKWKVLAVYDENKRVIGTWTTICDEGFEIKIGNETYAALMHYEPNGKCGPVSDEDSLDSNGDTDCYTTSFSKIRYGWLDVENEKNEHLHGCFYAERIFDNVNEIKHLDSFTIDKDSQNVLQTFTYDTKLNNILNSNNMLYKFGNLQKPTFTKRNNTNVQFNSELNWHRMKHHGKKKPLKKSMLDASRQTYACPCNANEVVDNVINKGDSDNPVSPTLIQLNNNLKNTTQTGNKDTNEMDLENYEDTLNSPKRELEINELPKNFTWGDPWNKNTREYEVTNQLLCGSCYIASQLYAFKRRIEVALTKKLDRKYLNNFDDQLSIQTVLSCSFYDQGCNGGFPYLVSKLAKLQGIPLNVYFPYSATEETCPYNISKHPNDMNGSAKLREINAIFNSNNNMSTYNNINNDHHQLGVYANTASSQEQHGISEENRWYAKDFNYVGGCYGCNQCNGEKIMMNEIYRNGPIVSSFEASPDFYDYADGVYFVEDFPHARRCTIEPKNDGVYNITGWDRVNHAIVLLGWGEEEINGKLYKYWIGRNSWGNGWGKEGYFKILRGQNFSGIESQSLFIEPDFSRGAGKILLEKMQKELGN", "assay": "primary screen, percent inhibition; read by cleavage of a fluorogenic dipeptide substrate; higher = more effect of the substance", "design": "species or system P. falciparum D10 trophozoite lysates; single well", "units": {"% Inhibition @ 10 uM": "%"}}
{"compound": "Clc1ccc(-c2cnnn2-c2nonc2-n2cccc2)cc1", "% Inhibition @ 10 uM": 7.99}
{"compound": "Cc1cc(S(=O)(=O)NC2CC(C)(C)NC(C)(C)C2)c(Cl)cc1Cl", "% Inhibition @ 10 uM": 0.245}
{"compound": "CCOc1ccc(N(C(C)C(=O)Nc2cccc(Br)c2)S(C)(=O)=O)cc1", "note": "(stereo not drawn)", "% Inhibition @ 10 uM": 2.54}
{"compound": "Cc1ccc(CNC(=O)c2ccc3c(c2)c(C)c(C)n3Cc2ccc(F)cc2)o1", "% Inhibition @ 10 uM": -4.52}
{"compound": "CC(=O)c1cnc(S)nc1O", "% Inhibition @ 10 uM": -7.62}
{"compound": "COCCN1C(=O)/C(=C/c2ccccc2C)S/C1=N\\c1ccccc1", "% Inhibition @ 10 uM": -7.21}
{"compound": "CCOc1cc(C(=O)Nc2c(-c3ccccc3)nc3ccccn23)cc(OCC)c1OCC", "% Inhibition @ 10 uM": -5.77}
{"compound": "CCC/N=C/c1c(CCC)nn(-c2ccc(F)cc2)c1O", "% Inhibition @ 10 uM": -5.63}
{"compound": "O=C(N/C(=C\\c1ccccc1)C(=O)N1CCCCCCC1)c1ccccc1", "% Inhibition @ 10 uM": 2.46}
{"compound": "COc1ccc(NS(=O)(=O)c2cc(C(=O)Nc3ccccc3)ccc2C)cc1", "% Inhibition @ 10 uM": -1.04}
{"compound": "Nc1c(C(=O)C2CC2)sc2nc3c(cc12)CCC3", "% Inhibition @ 10 uM": 3.72}
{"compound": "Cc1ccc(-n2nc3c(=O)n(CCCC(=O)NC4CCCC4)nc(C)c3c2C)cc1", "% Inhibition @ 10 uM": 1.11}
{"compound": "Fc1ccc(C2CC(c3cccc4ccccc34)n3ncnc3N2)cc1", "note": "(stereo not drawn)", "% Inhibition @ 10 uM": -9.75}
{"compound": "Cc1c2cnn(CC(=O)NCCCN3CCOCC3)c(=O)c2c(C)n1Cc1ccccc1", "% Inhibition @ 10 uM": 4.4}
{"compound": "Cc1ccc(C(C)C)c(OCC(=O)Nc2nc(C)cc(C)n2)c1", "% Inhibition @ 10 uM": 1.15}
{"compound": "CCNC(=S)N(CCc1c(C)[nH]c2ccccc12)Cc1cccnc1", "% Inhibition @ 10 uM": 11.3}
{"compound": "C=C(C)Cn1c(CCCNC(=O)c2ccc(F)cc2)nc2ccccc21", "% Inhibition @ 10 uM": 2.83}
{"compound": "COc1ccc(CC(=O)Nc2ccccc2C)cc1OC", "% Inhibition @ 10 uM": 0.583}
{"compound": "COc1ccc(-c2cc(-c3ccccc3)nc(SCC(=O)N3CCOCC3)c2C#N)cc1", "% Inhibition @ 10 uM": 5.24}
{"compound": "CC(C)(C)c1cc(/C=N/N=C(\\N)c2nonc2N)cc(C(C)(C)C)c1O", "% Inhibition @ 10 uM": 0.561}
{"compound": "OC1=C2C(=Nc3ccccc3NC2c2ccc(O)cc2)CC(c2ccccc2)C1", "note": "(stereo not drawn)", "% Inhibition @ 10 uM": 3.65}
{"compound": "O=C(O)c1cc(O)nc2ccc(S(=O)(=O)O)cc12", "% Inhibition @ 10 uM": -1.99}
{"compound": "Cc1ccc(C)c(Oc2coc3cc(OCC(=O)NC4CCCCC4)ccc3c2=O)c1", "% Inhibition @ 10 uM": 4.85}
{"compound": "Cc1cc(C)cc(NC(=O)c2ccc(Br)o2)c1", "% Inhibition @ 10 uM": -5.92}
{"compound": "COCCCNC(=O)c1cc2c(=O)n3cccc(C)c3nc2n1C", "% Inhibition @ 10 uM": 1.52}
{"compound": "Cc1ccc(NC2=C(Cl)C(=O)N(c3ccccc3)C2=O)cc1C", "% Inhibition @ 10 uM": 1.57}
{"compound": "O=C(CN1N=C(c2ccccc2)CCC1=O)NCCN1CCC(Cc2ccccc2)CC1", "% Inhibition @ 10 uM": -2.99}
{"compound": "COc1ccccc1CNC(=O)Cn1nc(C)n2c(cc3c(OC)cccc32)c1=O", "% Inhibition @ 10 uM": -3.47}
{"compound": "CC1=NC2=C(C(=O)CCC2)C(c2cccc(F)c2)/C1=C(\\O)OC(C)C", "note": "(stereo not drawn)", "% Inhibition @ 10 uM": 2.79}
{"compound": "CN(C)CCNC(=O)Cn1ccc2cc(S(=O)(=O)N3CCCCC3)ccc21", "% Inhibition @ 10 uM": 2.28}
{"compound": "Cc1ccc(C(C)C)c(OCCSc2nc(-c3ccco3)nc3cc(=O)[nH]n23)c1", "% Inhibition @ 10 uM": -7.1}
{"compound": "COc1cccc(C(=O)NCC2(c3ccc(OC)c(OC)c3)CCCC2)c1", "% Inhibition @ 10 uM": 0.755}
{"compound": "Cc1cc(C)c2c(CC(=O)NC3CCS(=O)(=O)C3)coc2c1", "note": "(stereo not drawn)", "% Inhibition @ 10 uM": -0.671}
{"compound": "CC1=C(c2ccc(Cl)cc2)S(=O)(=O)N=C1NCCC1=CCCCC1", "% Inhibition @ 10 uM": 6.91}
{"compound": "Cc1nn(-c2ccccc2)c(N)c1C(NC(=O)c1ccccc1)(C(F)(F)F)C(F)(F)F", "% Inhibition @ 10 uM": -3.36}
{"compound": "CSCCC(NS(=O)(=O)c1ccc2c3c(cccc13)C(=O)N2C)C(=O)O", "note": "(stereo not drawn)", "% Inhibition @ 10 uM": -1.55}
{"compound": "CC(=O)NC1(C(C)=O)C(=O)N(C(C)=O)c2ccccc21", "note": "(stereo not drawn)", "% Inhibition @ 10 uM": 3.96}
{"compound": "CCN(CC)c1ccc(CN2CCC(C(N)=O)CC2)cc1", "% Inhibition @ 10 uM": -8.55}
{"compound": "CCc1[nH]nc2c1C(c1c(Cl)cccc1Cl)C(C#N)=C(N)O2", "note": "(stereo not drawn)", "% Inhibition @ 10 uM": -1.64}
{"compound": "O=C(CC(c1ccccc1)c1cc(Br)ccc1O)NCc1cccnc1", "note": "(stereo not drawn)", "% Inhibition @ 10 uM": -3.34}
{"compound": "Clc1ccccc1/C=C/c1nc2ccccc2[nH]1", "% Inhibition @ 10 uM": -0.256}
{"compound": "Cc1cc(C)nc(/N=C(\\N)Nc2cc(Cl)ccc2C)n1", "% Inhibition @ 10 uM": -1.88}
{"compound": "CC(=O)NC(CCS(C)(=O)=O)C(=O)Nc1cc(C)on1", "note": "(stereo not drawn)", "% Inhibition @ 10 uM": -0.396}
{"compound": "CC(=O)Nc1ccc(NC(=O)c2ccccc2C(=O)O)cc1", "% Inhibition @ 10 uM": 4.73}
{"compound": "CCOc1ccc(NC2=NC(=O)C(CC(=O)Nc3cccc(C)c3C)S2)cc1", "note": "(stereo not drawn)", "% Inhibition @ 10 uM": 3.8}
{"compound": "O=C(Nc1cccnc1)C(Cc1ccccc1)N1C(=O)C2C3C=CC(C3)C2C1=O", "note": "(stereo not drawn)", "% Inhibition @ 10 uM": -0.551}
{"compound": "OCCN1CCN(Cc2ccco2)CC1", "% Inhibition @ 10 uM": 3.48}
{"compound": "Cc1cc(C(=O)NCCN2CCCC2)c2c(C)nn(-c3cccc(Cl)c3C)c2n1", "% Inhibition @ 10 uM": -3.56}
{"compound": "O=C(Nc1ccccc1F)c1ccc(CNS(=O)(=O)c2cccc(C(F)(F)F)c2)cc1", "% Inhibition @ 10 uM": 1.94}
{"compound": "CCCNC(=O)CSc1c(O)nc2ccc(Cl)cc2c1-c1ccccc1", "% Inhibition @ 10 uM": 3.16}
{"compound": "Clc1cccc(/C=N/n2cnnc2)c1Cl", "% Inhibition @ 10 uM": 8.98}
{"compound": "COc1cccc(CN(C(=O)c2sc3ccccc3c2Cl)C2CCS(=O)(=O)C2)c1", "note": "(stereo not drawn)", "% Inhibition @ 10 uM": -4.95}
{"compound": "Cn1c(=O)c2sccc2n2c(CCCC(=O)N3CCCCC3)nnc12", "% Inhibition @ 10 uM": -0.485}
{"compound": "Cc1ccc(-c2cc(C(=O)Nc3ccccc3)[nH]n2)cc1", "% Inhibition @ 10 uM": -4.43}
{"compound": "Oc1ccc(CN2CCc3c([nH]c4ccccc34)C2)cc1", "% Inhibition @ 10 uM": -7.52}
{"compound": "COc1ccccc1Nc1nc(NC2CCCCC2)nc(C)c1[N+](=O)[O-]", "% Inhibition @ 10 uM": -1.05}
{"compound": "CC(C)c1ccc(/C=C/C(=O)Nc2ccc(Cl)cc2)cc1", "% Inhibition @ 10 uM": -3.71}
{"compound": "CSC1=NSC2=NC(=O)/C(=C\\c3ccc(O)c(O)c3)C(=N)N12", "% Inhibition @ 10 uM": 6.89}
{"compound": "Clc1cccc(C2C=C(c3cccnc3)Nc3nc4ccccc4n32)c1", "note": "(stereo not drawn)", "% Inhibition @ 10 uM": -1.62}
{"compound": "CSc1ccc(C2C3=C(O)CCCC3=NC(C)=C2C(=O)Nc2ccccc2C)cc1", "note": "(stereo not drawn)", "% Inhibition @ 10 uM": -10.3}
{"compound": "CCC1(C)Cc2c(sc3nc(SCC(=O)Nc4ccccc4)nc(N)c23)CO1", "note": "(stereo not drawn)", "% Inhibition @ 10 uM": 0.606}
{"compound": "CC1=NC(c2ccccc2)(c2ccccc2)c2ccccc2O1", "% Inhibition @ 10 uM": 4.15}
{"compound": "O=C(Nc1cccc2c1CCCC2)c1ccco1", "% Inhibition @ 10 uM": 5.73}
